The record followed here is the supplement of paper PMC3334620.

Over roughly 33,000 sequences, “E-score (-0.5 to 0.5)” has its median near -0.035; the highest 2% begin near 0.35. The list shows a part of the results.

This test deals with T1, Pdr3 (UniProt P33200).
T1 sequence: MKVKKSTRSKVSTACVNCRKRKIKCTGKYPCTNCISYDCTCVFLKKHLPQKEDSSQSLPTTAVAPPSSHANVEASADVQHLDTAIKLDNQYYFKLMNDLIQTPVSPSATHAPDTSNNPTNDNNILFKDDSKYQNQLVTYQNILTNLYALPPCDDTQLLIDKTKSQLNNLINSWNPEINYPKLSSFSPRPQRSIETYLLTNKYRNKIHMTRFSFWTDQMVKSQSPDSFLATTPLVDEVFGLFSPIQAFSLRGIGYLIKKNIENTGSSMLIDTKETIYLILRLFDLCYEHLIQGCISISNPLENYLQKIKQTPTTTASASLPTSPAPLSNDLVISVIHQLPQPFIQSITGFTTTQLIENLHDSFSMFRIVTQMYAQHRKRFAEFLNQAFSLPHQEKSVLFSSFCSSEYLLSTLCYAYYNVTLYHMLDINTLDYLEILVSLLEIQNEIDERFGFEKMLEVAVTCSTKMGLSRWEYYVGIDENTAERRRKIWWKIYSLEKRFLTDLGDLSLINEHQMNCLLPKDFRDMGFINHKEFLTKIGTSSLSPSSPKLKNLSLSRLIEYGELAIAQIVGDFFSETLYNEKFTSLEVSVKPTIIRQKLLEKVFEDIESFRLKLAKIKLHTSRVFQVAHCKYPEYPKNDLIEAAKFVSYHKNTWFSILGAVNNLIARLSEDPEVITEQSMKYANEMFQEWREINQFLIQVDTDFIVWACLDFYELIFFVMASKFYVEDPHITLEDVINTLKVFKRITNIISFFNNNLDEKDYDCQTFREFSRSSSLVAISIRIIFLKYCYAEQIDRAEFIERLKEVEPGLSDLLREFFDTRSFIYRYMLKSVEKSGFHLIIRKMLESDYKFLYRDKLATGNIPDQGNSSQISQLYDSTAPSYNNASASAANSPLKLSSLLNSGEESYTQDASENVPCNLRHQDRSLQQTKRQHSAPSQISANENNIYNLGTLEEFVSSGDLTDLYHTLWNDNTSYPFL
Briefly: PBM E-score (8-mer binding enrichment) (E-score (-0.5 to 0.5)); higher = stronger / more preferred TF binding; most listed sequences are background and not binding sites. Particulars: protein concentration: 200 nM; construct: GST-full length. The method in brief: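 GST-tagged yeast TFs (full-length or DNA-binding domain) were made by PURExpress in vitro transcription/translation and applied at about 100-200 nM to universal all-10-mer Agilent arrays. The arrays were made double-stranded by primer extension, on fresh or once-stripped slides. Bound protein was detected with fluorescent anti-GST, and scans were normalised with masliner. Each ungapped eight-base word, pooled with its reverse complement, received an E-score (modified Wilcoxon-Mann-Whitney statistic) from the Universal PBM Analysis Suite.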
Regarding CGTATACG, the “PBM E-score” value is 0.0176.

Take AACTAGAC: the “PBM E-score” value was -0.106.

For AGCTCGAG, the “PBM E-score” value was -9e-05.

As to GAATTTCC, the “PBM E-score” value was determined as 0.268.

On to ATCAGGCC, for which the “PBM E-score” value was -0.0165.

For the sequence GAGCGCAC, the “PBM E-score” value was 0.153.

With GTCATATA, the “PBM E-score” value is -0.0478.

AAGTCGGA: the “PBM E-score” value is 0.242.

Take AATCAGAT: the “PBM E-score” value is -0.193.

TGCCGCCA: the “PBM E-score” value is 0.188.

As for GAAGGAAC, the “PBM E-score” value was 0.0934.

For the sequence GTGCAAGA, the “PBM E-score” value was 0.00884.

Turning to ACTCACAT, the “PBM E-score” value was -0.188.

On to ATTATTCC, for which the “PBM E-score” value is 0.271.

ACCGTTCA: the “PBM E-score” value worked out at 0.00427.

Turning to ACGCAGAC, the “PBM E-score” value was -0.0557.

Regarding ATGGGTGG, the “PBM E-score” value was -0.013.

Consider ATGTGACG, for which the “PBM E-score” value is -0.142.

As for GAAAGTGC, the “PBM E-score” value is -0.118.

On to CTTTAAGA, for which the “PBM E-score” value came to 0.0484.

As to GAGCGACA, the “PBM E-score” value is -0.0938.

With GCTGAGCA, the “PBM E-score” value was -0.0735.

GCCCGCCC: the “PBM E-score” value amounted to 0.181.

Turning to GTTAACCA, the “PBM E-score” value came out at 0.0181.

For CACAGTAA, the “PBM E-score” value worked out at 0.039.

As to CGGTATGC, the “PBM E-score” value was -0.00571.

As to ACGGCATG, the “PBM E-score” value was determined as 0.0911.

Take CACCACGA: the “PBM E-score” value is -0.0287.

Take AGACACAG: the “PBM E-score” value is -0.0456.

Turning to CAGTATGA, the “PBM E-score” value is -0.149.

With AAAATAAT, the “PBM E-score” value was determined as 0.0224.

AGTAGCGA: the “PBM E-score” value was -0.146.

As to AGTCCGGA, the “PBM E-score” value was 0.422.

On to CCAATAAA, for which the “PBM E-score” value turned out to be 0.026.

On to GACCTGTA, for which the “PBM E-score” value was -0.15.

As to CTGGTTGA, the “PBM E-score” value was -0.22.

Turning to GGAAGCTA, the “PBM E-score” value came out at 0.229.

For GTAGCTGA, the “PBM E-score” value is -0.101.

In the case of GCACAGAC, the “PBM E-score” value is 0.0353.

On to CGAAGGTA, for which the “PBM E-score” value is 0.0358.

As for ACATTTGG, the “PBM E-score” value stood at 0.0987.

For ATAAAGGA, the “PBM E-score” value was -0.173.

On to AAAAGAAC, for which the “PBM E-score” value is -0.113.

For the sequence CTCGATAA, the “PBM E-score” value is 0.0888.

Take CCCCGTCG: the “PBM E-score” value was found to be 0.165.

For AGACACAT, the “PBM E-score” value was -0.111.

For the sequence CTAGGGAC, the “PBM E-score” value is -0.153.

For the sequence CAGCCATA, the “PBM E-score” value was -0.0134.

Take GTGTCTCA: the “PBM E-score” value was -0.11.

Take CACAGAAC: the “PBM E-score” value is -0.191.

With AAGTCTGA, the “PBM E-score” value was -0.365.

With CGAGGCCG, the “PBM E-score” value was determined as 0.0807.

Regarding CCACATGG, the “PBM E-score” value was -0.0876.

In the case of CACGTGTA, the “PBM E-score” value was -0.182.

For GACATCTA, the “PBM E-score” value was -0.0109.

As to AGGAGAAG, the “PBM E-score” value is -0.194.

Take CTTGTCAA: the “PBM E-score” value was -0.00536.

On to AATAATAT, for which the “PBM E-score” value amounted to 0.27.

Regarding AGCCATTC, the “PBM E-score” value was found to be 0.0239.

As for AGTACGAC, the “PBM E-score” value was -0.0634.

As to ACGCGAGC, the “PBM E-score” value amounted to 0.0915.

AGCTGTTG: the “PBM E-score” value was -0.0549.

For the sequence TCGAGTAA, the “PBM E-score” value was 0.0515.

Take ATGAGAAG: the “PBM E-score” value is -0.162.

Take AGGCGCCT: the “PBM E-score” value is -0.17.

Take ACGGGGAT: the “PBM E-score” value worked out at 0.19.

For AACGAATA, the “PBM E-score” value is 0.0903.

For CACCCTCG, the “PBM E-score” value was -0.0329.

On to GCAGTAGC, for which the “PBM E-score” value was -0.121.

Consider TTGGAAAA, for which the “PBM E-score” value is -0.141.

Take AGGCAATA: the “PBM E-score” value was -0.155.

Turning to CTTGGGTC, the “PBM E-score” value is -0.036.

Turning to GAGGTCCA, the “PBM E-score” value came out at 0.024.

In the case of CAAACTGG, the “PBM E-score” value was -0.159.

Turning to AAAACGAC, the “PBM E-score” value was -0.181.

With ATGCAGCG, the “PBM E-score” value was -0.0518.

Take AGAATAGG: the “PBM E-score” value came to 0.0285.

Turning to AGAGGATA, the “PBM E-score” value was -0.174.

Turning to AGTGGTAC, the “PBM E-score” value was -0.201.

Regarding ATGATCCG, the “PBM E-score” value turned out to be 0.336.

With CCTGCCAG, the “PBM E-score” value is -0.261.

Turning to ACGTTCCG, the “PBM E-score” value came to 0.445.

As for GTTCCGGA, the “PBM E-score” value came to 0.475.

In the case of AATCCTAT, the “PBM E-score” value was determined as 0.0914.

In the case of CCAGGTTC, the “PBM E-score” value was -0.00168.

As for CCATCAGC, the “PBM E-score” value was -0.0053.
